# PubChem BioAssay AID1508642 (National Center for Advancing Translational Sciences (NCATS), 2021)
# Screen size: about 43,000 compounds; about 200 (0.47%) were called active. Inconclusive results (about 12%) are left out. The call rests on the fitted dose curve; in most records, active means well fitted cell-killing curve with a large enough effect; inconclusive means small, poorly fitted or top-dose-only effect, or effect the other way; inactive means flat fitted curve, though single readings scatter. This is one part of the list.
# Assay: Cell viability qHTS assay in S16 Pmp22-F2sN cells; further: nearly all actives have a fitted effect of over 65% in size
# Conditions: S16 Pmp22-F2sN Schwann cells (luciferase reporters placed in the Pmp22 gene) viability, CellTiter-Glo, 24 h; series mostly up to 57.5 µM; activity change, negative = cytotoxicity: at the top concentration
# Procedure, shortened: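 CellTiter-Glo counter-screen, qHTS, 1536-well. Cells: S16(c9) Pmp22-F2sN, 500-1,000/well in DMEM + 10% FBS. Cpd 23 nL pin transfer, 24 h, 37C/5% CO2. Read: luminescence, CCD imager.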
# On the % scale 0 is the no-effect control and ±100 the full control effect.
row,Structure (SMILES),"activity change, negative = cytotoxicity"
1,CC(=O)c1ccc(NC(=O)CSc2ccc3nc(-c4ccccc4)cn3n2)cc1,inactive: 5.45%
2,Cc1ccc(-c2cc(C(=O)N3CCN(S(=O)(=O)c4ccc(Br)s4)CC3)[nH]n2)c(C)c1,inactive: 8.53%
3,CCOc1ccc(CCNC(=O)C2Cc3ccccc3N2C(=O)CC)cc1OCC (centres undefined),inactive: 22.4%
4,Cc1ccccc1Oc1nc2c(c(=O)n(C)c(=O)n2C)n1Cc1ccc(Br)cc1,inactive: 6.15%
5,Cc1ccc2c(c1)nc(SCC(O)c1ccc(Br)cc1)n2C (centres undefined),inactive: 6.82%
6,COC(=O)c1ccc(C(=O)OC)c(NC(=O)c2c(-c3ccccc3)c(-c3ccccc3)nn(C)c2=O)c1,inactive: 8.24%
7,COc1ccc(N2CCN(Cc3nc4c(c(=O)[nH]c(=O)n4C)n3Cc3ccccc3)CC2)cc1,inactive: 9.28%
8,Cn1c(=O)c2sccc2n2c(CCC(=O)NCc3ccccc3)nnc12,inactive: 10.8%
9,CC(NC(=O)CSc1n[nH]c(-c2ccccc2)n1)c1nc2ccccc2n1C (centres undefined),inactive: 6.86%
10,Cc1ccc(S(=O)Cc2nc(-c3ccc(C(=O)NC(C)c4ccccc4)cc3)oc2C)cc1 (centres undefined),inactive: 0.749%
11,CCCCc1ccc(Nc2ncnc3c2cnn3-c2ccc(C)cc2)cc1,inactive: 17.6%
12,CCC1CCCCN1C(=O)Cn1c(=O)n(CC2CCC(C(=O)NC)CC2)c(=O)c2sccc21 (centres undefined),inactive: 10.6%
13,O=C(Nc1ccc(OC(F)(F)F)cc1)NC1COc2ccccc2C1 (centres undefined),inactive: 10.6%
14,COc1ccc(C2CC(=O)N(CC(=O)Nc3ccc(C(F)(F)F)cc3)c3ccccc3S2)cc1 (centres undefined),inactive: 4.44%
15,COc1ccc(C(=O)Nc2ccc3nc(SCC(=O)N4CCOCC4)sc3c2)cc1,inactive: 8.15%
16,COC(=O)c1ccc(OC)c(Cn2c(=O)n(-c3ccc(C)cc3)c(=O)c3c2cnn3C)c1,inactive: 24.8%
17,Cc1cccc(C)c1NC(=O)CN(C)S(=O)(=O)c1ccc2c(c1)n(C)c(=O)c(=O)n2C,inactive: -8.71%
18,CCc1ccc(OCC(=O)NCC(c2ccc(OC)cc2)N2CCOCC2)cc1 (centres undefined),inactive: 4.21%
19,CCSc1nc(=O)c2c(n1C)NC(=O)CC2c1ccc(O)cc1OC (centres undefined),inactive: -0.679%
20,COc1ccc(-n2c(=O)c3sc4ccccc4c3n(Cc3ccccc3)c2=O)cc1,inactive: 6.05%

row,Structure (SMILES),"activity change, negative = cytotoxicity"
1,Cc1cccc(C(=O)N(Cc2nc(-c3ccc(Cl)cc3)no2)C(C)C)c1,inactive: 0.492%
2,CC(=O)c1cccc(NC(=O)Cn2c(C)c3cnn(-c4ccccc4)c(=O)c3c2C)c1,inactive: -15.5%
3,CCN(CC)CCNC(=O)c1ccc2c(c1)N(Cc1ccccc1)C(=O)c1ccccc1S2=O (centres undefined),inactive: -3.86%
4,Cc1ccc2c(CNC3CCC(C)CC3)c(C(=O)O)n(Cc3cccc(F)c3)c2c1 (centres undefined),inactive: 0.311%
5,COc1cccc(CNC(=O)c2c3c(nc4ccccc24)C(=O)N(C2CCCCC2)C3)c1,inactive: -0.135%
6,CCc1nn(CC(=O)NC2CC2)c(=O)c2cc3ccccc3n12,inactive: 7.5%
7,O=C(Cn1c(=O)nc(-c2ccccc2)c2cc(Cl)ccc21)NCCCc1ccccc1,inactive: 25.8%
8,Cc1sc(NC(=O)COc2ccc(C(C)(C)C)cc2)c(C(=O)OC(C)C)c1C,inactive: 1.5%
9,Cc1cc(-c2nc3ccccc3s2)ccc1NC(=O)c1cc(Cl)ccc1Cl,inactive: -17.6%
10,Cc1ccc(-c2noc(C3CC(=O)N(c4ccc5c(c4)OCCO5)C3)n2)cc1 (centres undefined),inactive: 1.64%
11,COc1ccc(CNC(=O)C2CCN(S(=O)(=O)c3cn(C)cn3)CC2)cc1,inactive: 1.11%
12,COc1ccc(NC(=O)N(Cc2ccco2)C2CCN(C(C)=O)CC2)c(OC)c1,inactive: 11.1%
13,CCn1cc(C(=O)N2CCN(c3ccccc3)CC2)c(=O)c2cc(S(=O)(=O)N3CCC(C)CC3)ccc21,inactive: -3.36%
14,COc1ccc(C2CC(=O)c3c([nH]c(C(=O)OCCOc4ccccc4)c3C)C2)cc1OC (centres undefined),inactive: 2.44%
15,CCOc1ccc(NC(=O)c2cn3c4c(ccc(Cl)c4c2=O)OC(C)C3)cc1 (centres undefined),inactive: 2.84%
16,COc1cccc(CNC(=O)c2cccn2-c2nnc(N3CCCC3)s2)c1,inactive: 2.32%
17,CCN1CCN(C(=O)c2cnn(-c3cccc(C)c3)c2C2CCN(C(=O)OC(C)(C)C)CC2)CC1,inactive: 3.12%
18,COc1cccc(-c2ccnc3[nH]n(-c4ccccc4)c(=O)c23)c1,inactive: 11%
19,Cc1ccc(-n2c(SCC(=O)N3CCC(C)CC3)nc3c([nH]c4ccccc43)c2=O)cc1,inactive: 7.76%
20,Cc1ccc(NC(=O)c2ccc(F)c(S(=O)(=O)N3CCc4ccccc4C3)c2)cc1F,inactive: -9.87%

row,Structure (SMILES),"activity change, negative = cytotoxicity"
1,COc1ccc(Cl)cc1NC(=O)CSc1cn(CC(=O)N2CCCC2)c2ccccc12,inactive: -17.8%
2,Cc1cc(NC(=O)CN2C(=O)CSc3ccc(S(=O)(=O)N(C)C)cc32)ccc1Br,inactive: -10.4%
3,CCOC(=O)c1c(NC(=O)c2nc(SC)ncc2Cl)sc(C)c1C,inactive: 4.45%
4,CSc1ccc(CCNC(=O)c2ccc3c(c2)nc2n3CCOC2)cc1,inactive: 26.1%
5,Cc1c(Cl)cccc1NC(=O)NCCOCCn1c(=O)oc2ccccc21,inactive: -21.9%
6,CCOC(=O)N1CCc2c(sc(NCc3sccc3C)c2C(=O)Nc2ccccc2OCC)C1,inactive: -19.5%
7,CCOC(=O)c1ccc(NC(=O)CN2C(=O)CC(c3ccc(C)c(C)c3)=Nc3ccccc32)cc1,inactive: -13.7%
8,CCOc1ccc(CCNC(=O)c2ccc3c(c2)N(Cc2cccc(Cl)c2)C(=O)c2ccccc2S3(=O)=O)cc1OCC,inactive: -1.84%
9,Cn1c(=O)n(CCCc2ccccc2)c(=O)c2c1nc1n2CCN1c1ccccc1,inactive: 15.8%
10,CCOC(=O)c1scc(-c2ccc(C)cc2)c1S(=O)(=O)Nc1ccc(F)c(F)c1,inactive: 27.1%
11,COc1ccc2c(c1)c(=O)c(C(=O)c1ccc(Cl)cc1)cn2CC(=O)Nc1ccc2c(c1)OCO2,inactive: 18.9%
12,CCN(Cc1ccccc1)C(=O)CCS(=O)(=O)c1ccc2c(c1)oc(=O)n2C,inactive: -12.4%
13,COCCNc1ccc(-c2nc(-c3cccc(C)c3)no2)cc1[N+](=O)[O-],inactive: 7.11%
14,CN1C(=O)c2ccccc2Sc2ccc(NC(=O)COc3ccc(Cl)cc3)cc21,inactive: -25.2%
15,CC1CCCN(C(=O)Cn2c(=O)n(CC3CCC(C(=O)NC(C)C)CC3)c(=O)c3sccc32)C1 (centres undefined),inactive: 0.866%
16,Cn1c(-n2cccc2)c(-c2c(-c3ccc(F)cc3)[nH]c3c2c(=O)[nH]c(=O)n3C)c(=O)[nH]c1=O,inactive: -5.13%
17,COc1ccc(CCNC(=O)CSCc2nc(-c3ccc(OC)c(OC)c3)oc2C)cc1OC,inactive: -1.76%
18,COc1cc(OC)c(NC(=O)c2ccc3c(Cl)c4c(nc3c2)CCCC4)cc1Cl,inactive: 12.1%
19,COc1cccc(OC)c1Cn1nnc2c(=O)[nH]c(C3CCN(C(=O)c4ccccc4)CC3)nc21,inactive: -19.4%
